The structures appear in SMILES notation. Inconclusive results and toxic doses are left out. The source holds more than one record for some entries. This is not the full list of results. The source may hold further records. Results that share an entry are repeats across runs, samples, wells, individuals or studies. Peptide text beside a SMILES is read from it. * marks the point of attachment. Trt = c1ccc(C(c2ccccc2)(c2ccccc2)*)cc1; Cbz = O=C(OCc1ccccc1)*; Bn = c1ccc(C*)cc1; βAla = NCCC(=O)O

For the assay, the system named is BDF1 mice, B16 melanoma ip, median survival T/C. The assay is described as follows: NCI In Vivo Anticancer Drug Screen. Data for tumor model B16 Melanoma (intraperitoneal) in B6D2F1 (BDF1) mice. To be noted: endpoint: median survival time, higher = longer survival. On the procedure:
The antitumor activity of compounds was measured in mice bearing transplantable tumors. Survival or tumor size were measured and the results are expressed as the measurement made in the treated group (T) divided by the measurement made in the vehicle treated control group (C). The tumor model used in this assay is B16 Melanoma (intraperitoneal) in B6D2F1 (BDF1) mice

Setting [1] is: dose: 6.25 mg/kg/injection, schedule: Q01DX009 (ip), vehicle: Klucel (hydroxypropylcellulose) (HPC).

With `COc1cc(NC(=O)CN(CCCl)CCCl)cc(OC)c1OC`, the T/C (dose: 50.0 mg/kg/injection, schedule: Q01DX009 (ip), vehicle: saline with Tween-80) is 109 % of control and 160 % of control.

Take `CCC1(O)CC2CN(CCc3c([nH]c4ccccc34)C(C(=O)OC)(c3cc4c(cc3OC)N(C)C3C(O)(C(=O)NCCO)C(O)C5(CC)C=CCN6CCC43C65)C2)C1` (stereo not given): the T/C (dose: 4.8 mg/kg/injection, schedule: Q01DX001 (ip), vehicle: water) is 120 % of control and 156 % of control.

For the molecule `CC1(C)OC2C(COC(=O)c3ccc([N+](=O)[O-])cc3)OC(NC(=O)N(CCCl)N=O)C2O1` (stereo not given), the T/C (dose: 3.12 mg/kg/injection, schedule: Q01DX009 (ip), vehicle: saline with Tween-80) is 113 % of control and 155 % of control.

Consider `COC(=O)C(CSC(c1ccccc1)(c1ccccc1)c1ccccc1)NC(=O)C(CSCc1ccccc1)NC(=O)CCNC(=O)OCc1ccccc1` (stereo not given) ({Cbz-βAla}-Cys(Bn)-Cys(Trt)-OMe; configuration not given here), for which, under “dose: 200.0 mg/kg/injection, schedule: Q01DX009 (ip), vehicle: Klucel (hydroxypropylcellulose) (HPC)”, the T/C is 96 % of control and 153 % of control.

In the case of `COc1ccc2cc3[n+](cc2c1OC)CCc1cc2c(cc1-3)OCO2`, the T/C (dose: 6.25 mg/kg/injection, schedule: Q01DX009 (ip), vehicle: carboxymethylcellulose (CMC)) was 92 % of control and 150 % of control.

On to `COc1cccc2c1C(=O)c1c(O)c3c(c(O)c1C2=O)C[C@@](O)(/C(C)=N\NC(=O)CO)C[C@@H]3OC1CC(N)C(O)C(C)O1` (stereo not given in full), for which the T/C (dose: 12.5 mg/kg/injection, schedule: Q01DX009 (ip), vehicle: saline) was 102 % of control and 165 % of control.

`CCC1(CC)OC2=C(CC(C#N)(C#N)C(C#N)(C#N)C2)O1`: the T/C (dose: 6.25 mg/kg/injection, schedule: Q04DX003 (ip), vehicle: Klucel (hydroxypropylcellulose) (HPC)) is 93 % of control and 175 % of control.

Take `COc1cccc2c1C(=O)c1c(O)c3c(c(O)c1C2=O)C[C@@](O)(C(C)=O)C[C@@H]3OC1CC(N)C(O)C(C)O1` (stereo not given in full): the T/C was 113 % of control and 153 % of control (dose: 0.5 mg/kg/injection, schedule: Q01DX001 (ip), vehicle: water); 90 % of control and 156 % of control (dose: 2.16 mg/kg/injection, schedule: Q01DX001 (ip), vehicle: water); 122 % of control and 150 % of control (dose: 2.7 mg/kg/injection, schedule: Q01DX001 (ip), vehicle: water); 101 % of control and 156 % of control (dose: 3.6 mg/kg/injection, schedule: Q01DX001 (ip), vehicle: water); 112 % of control and 166 % of control (dose: 4.5 mg/kg/injection, schedule: Q01DX001 (ip), vehicle: water).

On to `CC1=CC(=Nc2ccc(N(CCCl)CCCl)cc2)C=C(C)C1=O`, for which the T/C under setting [1] is given as 115 % of control, 117 % of control, 150 % of control.

Take `COC1OC2COC(c3ccccc3)OC2C(O)C1N` (stereo not given): where the note is “dose: 50.0 mg/kg/injection, schedule: Q04DX003 (ip), vehicle: saline with Tween-80”, the T/C was 91 % of control and 150 % of control.

As for `CN(C)c1ccc(/C=C/c2cc[n+](C)cc2)cc1`, the T/C (dose: 2.0 mg/kg/injection, schedule: Q04DX003 (ip), vehicle: saline with Tween-80) was 90 % of control and 155 % of control.

With `OCC1OC(n2cnc3cncnc32)C(O)C1O` (stereo not given), the T/C (dose: 6.25 mg/kg/injection, schedule: Q01DX009 (ip), vehicle: saline) was 102 % of control and 160 % of control.

Turning to `CCC(C(C)N1CC(=O)NC(=O)C1)N1CC(=O)NC(=O)C1` (stereo not given), the T/C (dose: 2.0 mg/kg/injection, schedule: Q04DX003 (ip), vehicle: Klucel (hydroxypropylcellulose) (HPC)) is 110 % of control and 154 % of control.

`COC(=O)C1C2CC3c4[nH]c5cc(OC)ccc5c4CCN3CC2CC(OC)C1OC` (stereo not given): the T/C (dose: 2.0 mg/kg/injection, schedule: Q01DX009 (ip), vehicle: saline) was 93 % of control and 184 % of control.

With `O=NN(CCCl)C(=O)NC1CCCCC1`, the T/C (dose: 16.0 mg/kg/injection, schedule: Q01DX001 (ip), vehicle: Klucel (hydroxypropylcellulose) (HPC)) was 122 % of control and 175 % of control.

Take `O=C1c2cccc3cc([N+](=O)[O-])cc(c23)C(=O)N1CCN1CCCC1`: the T/C (dose: 12.5 mg/kg/injection, schedule: Q01DX009 (ip), vehicle: saline with Tween-80) is 105 % of control and 162 % of control.

In the case of `CC1CC(C)CC(C)C(O)/C(C#N)=C/C=C/CC(C2CCCC2C(=O)O)OC(=O)CC(O)C(C)C1` (stereo not given), the T/C is, setting by setting: (dose: 0.5 mg/kg/injection, schedule: Q01DX009 (ip), vehicle: saline with Tween-80) 122 % of control and 159 % of control; (dose: 1.0 mg/kg/injection, schedule: Q01DX009 (ip), vehicle: saline with Tween-80) 110 % of control and 153 % of control.

In the case of `O=C(O)C(O)C(=O)O.[NH2-].[NH2-].[Pt+2]`, the T/C reads like this: (dose: 2.0 mg/kg/injection, schedule: Q01DX009 (ip), vehicle: other) 98 % of control and 187 % of control; (dose: 4.0 mg/kg/injection, schedule: Q01DX009 (ip), vehicle: other) 122 % of control, 162 % of control, 199 % of control.

On to `CCOC(=O)C1C(=O)C(CN(CCCl)CCCl)C(=O)C(C(=O)OCC)C1c1ccc(O)cc1` (stereo not given), for which the T/C under setting [1] is 122 % of control and 160 % of control.

(Values after PubChem BioAssay AID192 (DTP/NCI, 2004).)
